Paper PMC6919601, “Identification of Plasmodium dipeptidyl aminopeptidase allosteric inhibitors by high throughput screening” (PLoS ONE, 2019)
In all, about 110,000 compounds went through this assay and about 230 (0.21%) showed an effect of 50% or more. This is one part of the list.

Target: DPAP1 (Plasmodium falciparum, UniProt Q8IIJ9)
Assay: primary screen, percent inhibition; read by cleavage of a fluorogenic dipeptide substrate; higher = more effect of the substance
Parameters: species or system P. falciparum D10 trophozoite lysates; single well
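Further: 30 min substrate incubation versus DMSO and 10 µM JCP410 controls.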

Chain of DPAP1 (Q8IIJ9 whole entry, looked up): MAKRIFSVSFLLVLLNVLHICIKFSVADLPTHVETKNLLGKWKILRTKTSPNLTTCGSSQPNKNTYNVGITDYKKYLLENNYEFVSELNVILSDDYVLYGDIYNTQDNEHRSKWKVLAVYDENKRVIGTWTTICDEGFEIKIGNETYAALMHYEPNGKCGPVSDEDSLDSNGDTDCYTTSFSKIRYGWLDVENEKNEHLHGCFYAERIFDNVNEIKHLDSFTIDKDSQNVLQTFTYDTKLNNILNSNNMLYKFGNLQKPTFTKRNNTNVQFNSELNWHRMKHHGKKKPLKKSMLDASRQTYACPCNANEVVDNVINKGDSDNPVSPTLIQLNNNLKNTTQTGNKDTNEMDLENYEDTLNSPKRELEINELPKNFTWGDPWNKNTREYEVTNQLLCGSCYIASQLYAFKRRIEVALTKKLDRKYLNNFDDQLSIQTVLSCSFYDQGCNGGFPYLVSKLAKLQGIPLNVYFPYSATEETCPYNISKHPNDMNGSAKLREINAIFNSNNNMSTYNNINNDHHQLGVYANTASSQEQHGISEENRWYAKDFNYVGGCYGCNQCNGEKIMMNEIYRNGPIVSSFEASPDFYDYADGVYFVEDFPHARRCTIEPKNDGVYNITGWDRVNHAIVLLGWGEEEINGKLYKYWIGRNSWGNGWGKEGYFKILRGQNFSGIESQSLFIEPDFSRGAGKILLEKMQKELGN

Compound | % Inhibition @ 10 uM
CCCN(CCC)CCCNC(=O)c1c(C)nn(-c2ccc(F)cc2)c1-n1cccc1 | -0.231%
Cc1ccc(NCC(=O)c2ccc(-c3ccccc3)cc2)cc1 | -0.294%
Cc1ccc(C(=O)n2nc(-c3ccccc3)nc2NCc2ccco2)cc1 | 8.5%
CCCCN(CC)CCCNC(=O)c1ccc2nc(N3CCCCC3)sc2c1 | -3.34%
COc1cccc2sc(N(CCN(C)C)C(=O)CCS(=O)(=O)c3ccccc3)nc12 | -5.59%
Brc1ccc(OCCCCn2ccnc2)cc1 | 2.22%
Cc1nn(Cc2cccc(C(=O)NC34CC5CC(CC(C5)C3)C4)c2)c(C)c1Br | -3.13%
Cc1cccn2c(=O)c3cc(S(=O)(=O)c4ccc(Cl)cc4)c(=N)n(C4CCCCC4)c3nc12 | -1.44%
C=CCNC(=O)Nc1cnc2ccc(F)cc2c1O | 3.84%
Cc1c(C#N)c2ccccc2n1CC(=O)N1CCc2ccccc2C1 | 2.35%
Fc1cccc(CN2CCN(Cc3cccnc3)CC2)c1 | 17.9%
O=C(O)c1cc2nc3c(c(C(F)(F)F)n2n1)CCc1ccccc1-3 | 2.38%
COc1ccc(CC(=O)N2N=C(C)CC2(O)C(F)(F)F)cc1 (stereo not shown) | -6.59%
O=C(NC1CCCC1)c1ccc(COc2cc(Cl)ccc2Cl)o1 | -5%
Cc1nc2c(cnn2-c2ccccc2)c(=O)n1-c1ccccc1 | 0.177%
O=C(c1ccc(Cn2c(=O)[nH]c3ccsc3c2=O)cc1)N1CCCCC1 | -6.5%
N#Cc1c(N)nc(SCC(=O)c2ccc(Cl)c(Cl)c2)c(C#N)c1-c1ccc(O)cc1 | 14.1%
Cc1nnc(NCC2CCCCC2)c2c1nnn2Cc1ccc(F)cc1 | 3.27%
O=C(CN(C1CCCCC1)S(=O)(=O)c1ccc(Cl)cc1)N1CCOCC1 | -0.553%
COc1cc(C(=O)N2CCN(C3C4CC5CC(C4)CC3C5)CC2)cc(OC)c1OC (stereo not shown) | -7.15%
O=C(NCc1ccccc1)C(=O)NC1CCCCC1 | 2.94%
COc1ccc(OC)c(NC(=O)C2CCCCC2)c1 | 0.231%
Cc1cccc(CN2CCc3c([nH]c4ccccc34)C2)c1 | 3.1%
COc1cccc(CN2CCN(C3CCCCCC3)CC2)c1OC | 3.56%
CCc1ccc(C2CC(c3ccccc3OC)n3ncnc3N2)cc1 (stereo not shown) | -1.86%

Compound | % Inhibition @ 10 uM
Cc1cc(NC(=O)C2CC3CCC2C3)no1 (stereo not shown) | 3.44%
CC1CCCC(C(=O)O)N1C(=O)CCS (stereo not shown) | -0.807%
O=C(NCCN1CCN(c2ccccc2)CC1)C12CC3CC(CC(C3)C1)C2 | -0.267%
COc1cccc(-c2nc(SCC(=O)N3CCCC3)n3[nH]c(=O)cc3n2)c1 | -5.72%
CCCC[C@H](NC(=O)C(Cc1c(F)cccc1F)NC(=O)c1ccc(-c2ccccc2Cl)cc1)C(=O)c1nc2ncccc2o1 (stereo partly shown) | -5.2%
CC(C)(C)Oc1ccc(C(=O)c2ccccc2)s1 | -3.23%
C=CCc1c(O)nc2n(c1=O)CCCS2 | -2.32%
COc1cccc(C2C(C#N)=C(N)N(c3nc[nH]n3)C3=C2C(=O)CCC3)c1OC (stereo not shown) | -5.63%
Clc1cccc(CN2CCN(Cc3ccccc3)CC2)c1 | 3.16%
COCCCN(C(=O)Nc1ccccc1)C(C)c1ccccn1 (stereo not shown) | -3.26%
NC(=S)CCCc1c[nH]c2ccccc12 | -3.81%
CCN1C(=O)/C(=C/c2ccc(Br)o2)S/C1=N/c1ccc(OC)cc1 | 15.6%
COC(=O)c1sccc1NC(=O)c1c(C)nn(-c2ccccc2)c1-n1cccc1 | -3.35%
Cc1ccc(-n2c(S)nnc2-c2ccccc2)cc1 | 0.0538%
Cc1occc1C(=O)Nc1cccc(C(F)(F)F)c1 | -2.46%
CC(C)(C)C1C/C(=C/c2ccccn2)C(=O)/C(=C/c2ccccn2)C1 (stereo not shown) | -4.65%
COc1cc(/C=C2/SC(=O)N(CC(=O)Nc3ccccc3C)C2=O)ccc1O | -5%
O=C1c2ccccc2C(=O)N1c1cccc(N2C(=O)c3ccccc3C2=O)n1 | 0.431%
COc1ccc(Br)cc1C1SCCN1S(=O)(=O)c1ccc(C)cc1C (stereo not shown) | -5.26%
O=C(CCC(=O)Nc1ccc(F)c(Cl)c1)Nc1ccc(F)c(Cl)c1 | -3.18%
C=CCn1c(SCC(=O)NC(N)=O)nc2sc3c(c2c1=O)CCC3 | 2.68%
CC1(C)CC(N2C(=O)c3ccccc3C2=O)CC(C)(C)N1 | -1.82%
COc1cc(-c2c(C(=O)O)nc3ccccc3c2C(=O)O)cc(OC)c1OC | 17.1%
CC1Cc2c([nH]c3ccccc23)C(C)N1 (stereo not shown) | -1.64%
CCOc1ccc(/C=C2\N=C(c3ccc(Cl)cc3Cl)OC2=O)cc1 | -2.41%

Compound | % Inhibition @ 10 uM
Fc1cccc(Cl)c1C1C=C(c2ccc(Br)s2)Nc2ncnn21 (stereo not shown) | -5.05%
CCOc1ccc(NC(=O)c2ccc(C(C)(C)C)cc2)cc1 | -3.43%
COc1cccc(/C=C2\S/C(=N/c3ccc(Cl)cc3)N(C)C2=O)c1OCC(=O)O | -4.15%
CC(C)(C)NC(=O)CN(c1ccc2c3c(cccc13)CC2)S(C)(=O)=O | -0.949%
N#CC1=C(N)OC2=C(C(=O)c3ccccc3C2=O)C1c1cccs1 (stereo not shown) | 5.45%
CC1CN(c2ccccc2[N+](=O)[O-])CCN1 (stereo not shown) | -1.91%
CCCS(=O)(=O)N1CCN(C(=O)c2cccc(OC)c2OC)CC1 | -3.06%
O=C(NCCCN1CCOCC1)C1CCCN(c2ncnc3c2sc2cccc(F)c23)C1 (stereo not shown) | 2.65%
CCC(=O)Nc1c(C(=O)N(C)Cc2ccco2)cnn1-c1ccccc1Cl | -2.98%
CC1(C)CC1(C#Cc1ccccc1)C(=O)O (stereo not shown) | -4.98%
COc1ccc(/C(C)=N/OCC(=O)Nc2sc3c(c2C#N)CCCC3)cc1OC | 1.96%
COC(=O)c1ccccc1-c1ccc(/C=C2/C(=N)N3N=C(CC(C)C)SC3=NC2=O)o1 | -1.26%
CC1=CC(C)(C)N(CC(=O)c2ccc([N+](=O)[O-])cc2)c2ccccc21 | -0.693%
O=C(CCn1c(=O)c2cccn2c2cccnc21)NCCc1ccc(Cl)cc1 | 4.65%
CCOc1ccc(-n2nnc(-c3nsc(NC(=O)c4ccccc4Cl)n3)c2C)cc1 | 7.25%
Cc1cc(C)c(C(=O)NCC2CCCO2)c(C)c1 (stereo not shown) | -2.86%
CCOc1ccc(C2C(C(=O)Nc3ccc(F)cc3)=C(C)Nc3ncnn32)cc1OC (stereo not shown) | 4.67%
CC(=O)Nc1ccc(C(=O)Nc2cccc(Cl)c2Cl)cc1 | 3.03%
c1coc(-c2nnc3n2C2(CCCC2)Cc2ccccc2-3)c1 | 5.32%
O=C(CN1CC(c2ccccc2)CC1=O)Nc1cccc2ccccc12 (stereo not shown) | -3.71%
CCOC(=O)CCS(=O)(=O)c1ccc2ccccc2c1 | -0.25%
CC(Oc1ccc(C(C)C)cc1)C(=O)N(Cc1ccco1)C1CCS(=O)(=O)C1 (stereo not shown) | 0.569%
CCN1CCN(Cc2ccoc2)CC1 | 4.57%
CC(C)CN(CCNC(=O)CN1N=C(c2ccccc2)CCC1=O)CC(C)C | 1.97%
CCc1nnc(NC(=O)CSc2ccc3nnc(-c4ccncc4)n3n2)s1 | 4.84%

Compound | % Inhibition @ 10 uM
Nc1nc(CNS(=O)(=O)c2ccccc2)nn1S(=O)(=O)c1ccccc1 | -0.447%
COc1ccccc1NC(=O)/C=C/c1ccc(C(C)C)cc1 | 6.25%
Cc1cc(C(=O)NC2CCCCC2)c2c(C)nn(-c3cccc(F)c3)c2n1 | -1.52%
O=C(Cn1ccc2cc(S(=O)(=O)N3CCCC3)ccc21)NC1CCCc2ccccc21 (stereo not shown) | 2.79%
Cc1ccc(C(=O)C2=C(O)C(=O)N(c3ccccn3)C2c2ccc(F)cc2)cc1 (stereo not shown) | -4.18%
COC(=O)C1=C(C)N=C(C)/C(=C(/O)OC)C1c1ccc(C)o1 (stereo not shown) | -3.74%
CC(C)Cc1ccc(-c2csc(N)n2)cc1 | 3.44%
Cc1cc(C(=O)O)[nH]n1 | 4.61%
CCCOc1ccc(C(CC(=O)O)NC(=O)c2cc(Cl)ccc2Cl)cc1 (stereo not shown) | 4.32%
Cc1oc2cc3oc(=O)c(CCC(=O)N4CCCC4)c(C)c3cc2c1C | 4.13%
O=C(C1=C(O)C(=O)N(CCc2c[nH]c3ccccc23)C1c1ccccn1)c1ccccc1 (stereo not shown) | -1.17%
Cc1ccc(S(=O)(=O)N(CC(=O)N2CCOCC2)c2cccc(Cl)c2C)cc1 | 0.235%
CC(C)Cn1cc(C(=O)NC(C)CCc2ccccc2)c2c3ccccc3n(C)c2c1=O (stereo not shown) | 3.55%
CCO/C(O)=C(\C#N)C1=NCCC1 | 2.17%
COc1cc(-c2nc(S)c3c(n2)Oc2ccccc2C3)cc(OC)c1OC | 0.54%
CCOCCCNC(=O)Cn1sc2nc(C)cc(C)c2c1=O | -1.21%
COc1ccc(Br)c(C2C(C#N)=C(N)Oc3[nH]c(C)nc32)c1 (stereo not shown) | 3.65%
CCOc1ccc(S(=O)(=O)N(C)Cc2cc3ccccc3o2)cc1 | 9.38%
COc1cc(C2c3c(-c4ccccc4O)n[nH]c3C(=O)N2CCCO)ccc1OCc1ccccc1 (stereo not shown) | 3.62%
O=C(Cn1ncc2c3ccccc3nc-2c1O)NCc1ccccn1 | -1.96%
COc1ccc(S(=O)(=O)N2CCC(NC(=O)NCCCO)CC2)cc1 | -0.946%
CC(C)Cn1cc(NC(=O)NCc2ccco2)c2ccccc2c1=O | -4.4%
Cc1nnc(NC(=O)c2c(O)nc3ccccc3c2O)s1 | -2.05%
Cc1cccc2sc(NC(=O)C3CCN(S(=O)(=O)c4c[nH]cn4)CC3)nc12 | -0.499%
Cc1cccc(NC(=O)CN2C(=O)N/C(=C/c3ccccc3)C2=O)c1 | -16%
